Source: paper PMC4336329 (PLoS ONE, 2015)
The whole screen tested about 310,000 compounds, of which about 2,200 (0.71%) showed an effect of 50% or more. The effect is printed as a negative number. The list shows a part of the results.

What follows are compounds tested against human ether-à-go-go-related gene (hERG) potassium channel (human, UniProt Q12809) (assay: primary screen, population patch clamp on CHO cells stably expressing hERG).
Sequence of human ether-à-go-go-related gene (hERG) potassium channel (Q12809 whole entry, looked up): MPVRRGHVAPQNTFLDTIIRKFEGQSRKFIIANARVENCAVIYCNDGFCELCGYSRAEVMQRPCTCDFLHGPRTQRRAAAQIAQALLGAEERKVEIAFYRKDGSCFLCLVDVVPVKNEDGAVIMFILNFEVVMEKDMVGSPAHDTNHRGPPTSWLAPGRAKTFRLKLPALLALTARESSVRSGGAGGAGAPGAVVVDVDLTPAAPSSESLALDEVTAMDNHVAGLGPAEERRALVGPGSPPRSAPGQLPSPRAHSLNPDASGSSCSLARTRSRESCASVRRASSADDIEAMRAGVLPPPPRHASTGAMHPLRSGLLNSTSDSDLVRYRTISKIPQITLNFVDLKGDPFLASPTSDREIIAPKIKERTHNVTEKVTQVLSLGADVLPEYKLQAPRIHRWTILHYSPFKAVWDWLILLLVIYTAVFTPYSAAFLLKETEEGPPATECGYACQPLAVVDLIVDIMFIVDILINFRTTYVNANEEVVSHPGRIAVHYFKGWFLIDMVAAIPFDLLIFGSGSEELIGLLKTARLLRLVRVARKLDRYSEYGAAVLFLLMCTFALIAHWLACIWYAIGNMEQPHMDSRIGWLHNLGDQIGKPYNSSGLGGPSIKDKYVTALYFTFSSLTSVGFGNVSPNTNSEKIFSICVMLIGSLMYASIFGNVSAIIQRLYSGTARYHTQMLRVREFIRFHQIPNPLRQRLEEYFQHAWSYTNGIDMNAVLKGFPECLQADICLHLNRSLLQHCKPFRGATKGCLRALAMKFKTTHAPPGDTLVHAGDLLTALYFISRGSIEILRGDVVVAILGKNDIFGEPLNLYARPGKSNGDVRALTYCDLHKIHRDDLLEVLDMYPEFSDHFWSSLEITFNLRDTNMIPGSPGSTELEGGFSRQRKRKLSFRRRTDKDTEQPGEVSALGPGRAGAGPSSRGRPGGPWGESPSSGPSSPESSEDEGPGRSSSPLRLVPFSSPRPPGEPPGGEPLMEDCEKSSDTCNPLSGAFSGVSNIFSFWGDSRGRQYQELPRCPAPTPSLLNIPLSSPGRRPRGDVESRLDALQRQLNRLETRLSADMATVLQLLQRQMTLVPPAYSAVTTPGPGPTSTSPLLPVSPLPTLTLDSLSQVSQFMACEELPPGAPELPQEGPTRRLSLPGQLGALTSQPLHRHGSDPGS

Row | SMILES | hERG current change (%, negative = inhibition) at 1uM
1 | COc1ccc(-c2ccc(SCC(=O)c3ccc(F)cc3)nn2)cc1OC | 6.12%
2 | COc1ccc(CNN2CCCCC2C(=O)Nc2ccc(OC)c(OCC(C)C)c2)cc1OC (stereo not shown) | -4.36%
3 | COc1cc(S(=O)(=O)NCCCN2CCOCC2)ccc1-n1cnnn1.O=C(O)C(=O)O | 7.1%
4 | Nc1ccc(C(=O)C(=O)c2ccccc2)cc1 | 10.4%
5 | O=C1c2ccccc2NC(c2ccc(Cl)cc2Cl)N1O (stereo not shown) | 11.1%
6 | O=C1CC(C(=O)N2CCC(N3CCC(C(=O)NC4CC4)CC3)CC2)c2ccccc21 (stereo not shown) | -0.352%
7 | CCN(CC)CCN1C(=O)c2oc3ccccc3c(=O)c2C1c1ccc(F)cc1 (stereo not shown) | -0.934%
8 | O=C(Nc1ccc(Cl)cc1)C1CCCN(c2ncnc3c2nc2n3CCCCC2)C1 (stereo not shown) | 5.78%
9 | Cc1ccc(S(=O)(=O)N(CCC(=O)Nc2ccc(OC(F)(F)F)cc2)c2ccccc2)cc1 | 1.05%
10 | Cc1ccc2[nH]c(C(=O)N3CCCC(Nc4ccc(F)cc4)C3)cc2c1 (stereo not shown) | 9.25%
11 | Cc1ccc(S(=O)(=O)c2cn(C)c3cc(N4CCN(C)CC4)c(F)cc3c2=O)cc1 | 5.39%
12 | COc1ccccc1-c1nnc(-c2ccc(F)cc2)o1 | 4.4%
13 | CN(C)S(=O)(=O)c1cccc(NC(=O)c2cc3ccccc3o2)c1 | -1.27%
14 | O=C(Cc1ccccc1)NC(Nc1cccc2ccccc12)C(Cl)(Cl)Cl (stereo not shown) | 9.32%
15 | COC(=O)C(C)Sc1ccc2nnc(CCNS(=O)(=O)c3ccccc3)n2n1 (stereo not shown) | 8.9%
16 | CC(=O)Nc1ccc(CN2CCN(C3CCCC3)C(CCO)C2)cc1 (stereo not shown) | 5.96%
17 | Cc1ccccc1NC(=O)CCN1C(=O)c2ccccc2C1=O | 4.44%
18 | CC(=O)Nc1ccccc1C(=O)OCC(=O)c1ccc2c(c1)OCCO2 | 13.5%
19 | CCN1CCCC1CNC(=O)c1ccc(Sc2ccccc2Cl)c([N+](=O)[O-])c1 (stereo not shown) | -11.2%
20 | CCn1cc(-c2csc(N)n2)c(C)n1 | 14.6%

Row | SMILES | hERG current change (%, negative = inhibition) at 1uM
21 | O=S1(=O)CCN2C=C(Cl)C=C(Cl)C2=N1 | 12.2%
22 | CC1CC(C)CN(C(=O)c2cc3c(s2)CCC3)C1 (stereo not shown) | 9.38%
23 | CC(=O)c1c(C)n(-c2ccccc2)c2ccc(OCC(O)CN3CCOCC3)cc12 (stereo not shown) | 9.72%
24 | O=C(c1cc(-c2ccc(Cl)cc2)n[nH]1)N1CCN(C(=O)c2ccco2)CC1 | -69.3%
25 | Cc1nc(Nc2nc(CSc3ccc(Cl)cc3)cc(=O)[nH]2)nc2ccccc12 | 1.09%
26 | COc1ccc(NC(C)=O)cc1NC(=O)CSc1nc2ncccc2[nH]1 | 3.98%
27 | CCN(CC)CCCNC(=O)c1ccc(OCC(=O)Nc2ccccc2C(F)(F)F)c(OC)c1 | -48.1%
28 | Brc1ccc(-c2nnc(-c3cccnc3)c3conc23)cc1 | 13.7%
29 | Br.CCc1ccc(C2=CSC3=NCCN23)cc1 | 1.72%
30 | O=C(N/N=C/c1c[nH]c2ccccc12)c1cc2ccccc2o1 | 8.92%
31 | CCOC(=O)c1ccc(N=NN(C)C)cc1 | 3.99%
32 | COc1cccc(NC(=O)CSc2nc3c(sc4ccccc43)c(=O)n2CCN(C)C)c1.Cl | -1.91%
33 | Cc1ccc(CSc2nc3nc(C)cc(C)c3c(=O)[nH]2)cc1 | -4.04%
34 | Cc1cc(-c2nnc(SCC(=O)Nc3ccc(F)c(F)c3)n2N)n[nH]1 | -9.36%
35 | CCCCn1c(N)c(N(CC(C)C)C(=O)CN(C)S(=O)(=O)c2ccc(F)cc2)c(=O)[nH]c1=O | -9.37%
36 | O=C(O)C1CCN(C(=O)c2ccco2)CC1 | 7.07%
37 | CC1(C)CCC[C@]2(C)C(CS(=O)c3ccccc3)=C(C=O)CC[C@@H]12 (stereo partly shown) | 6.12%
38 | Cc1ccn2c(=O)c(C(=O)NCCCN3CCCC3=O)c(O)nc2c1 | 40.7%
39 | COc1ccc(NC(=O)CSCC(=O)Oc2c(OC)cccc2OC)cc1 | 10.8%
40 | COC(=O)C(C)n1cnc2c(nnn2-c2cccc(OC)c2)c1=O (stereo not shown) | 11.8%

Row | SMILES | hERG current change (%, negative = inhibition) at 1uM
41 | O=C(NCc1ccc(Cl)cc1)c1ccc(CSc2nc3ccncc3[nH]2)cc1 | 10.1%
42 | O=c1c2ccccc2ncn1-c1ccc([N+](=O)[O-])cc1Cl | 13.9%
43 | COc1cc(CNCCc2ccccc2)cc(Cl)c1OCc1ccccc1.Cl | 12.2%
44 | Cc1ccc(C(=O)C(OC(=O)CN2C(=O)c3ccccc3C2=O)c2ccccc2)cc1C (stereo not shown) | 17.9%
45 | CSc1oc(-c2ccco2)nc1S(=O)(=O)c1ccccc1 | 8.42%
46 | CCN(CC)CCNS(=O)(=O)c1ccc2[nH]cc(C(=O)O)c(=O)c2c1 | 10.9%
47 | OCCNC(=S)NCc1ccccc1 | 10.4%
48 | CC1CCCN(C(=O)Cc2ccc(F)cc2)C1 (stereo not shown) | 13.9%
49 | Cc1cc(SCC(=O)Nc2cccnc2Cl)nc2ccccc12 | 12.8%
50 | Cc1nc2ccccc2c(=O)n1-c1ccc(F)cc1F | 5.91%
51 | COc1ccccc1OC[C@H](O)CO | 20%
52 | C=CCOc1ccc(CNc2ccc(NC(=O)CCC)cc2)cc1OCC | 11.8%
53 | CN1CCN(C2=C(Cl)C(=O)N(Cc3ccccc3)C2=O)CC1 | -4.55%
54 | Cc1ccc(NCc2nc3ccccc3n2C)cc1 | 2.32%
55 | COc1ccc(OC)c(S(=O)(=O)Nc2ccccc2O)c1 | 9.14%
56 | N#C/C(=C\c1ccncc1)c1ccc(NC(N)=O)cc1 | 14.7%
57 | Cc1cc(C(=O)CSc2nnc(N)s2)c(C)n1-c1c(C)n(C)n(-c2ccccc2)c1=O | 9.5%
58 | COc1cc(C2NC(=S)NC3=C2C(=O)CCC3)ccc1O (stereo not shown) | 17%
